What all share (experiment): co-IP; anti-GFP (GFP nanobodies, mock-coupled control beads) IP from native lysates of HeLa Flip-In T-Rex lines expressing MTBP-3×Flag-TEV2-GFP (WT or deletions); endogenous Treslin/TICRR and Cdk8 by immunoblot
(In western blotting, separated proteins are transferred to a membrane and probed.)

Amino acid sequences for entries named in this document (tags omitted).
UniProt P49336: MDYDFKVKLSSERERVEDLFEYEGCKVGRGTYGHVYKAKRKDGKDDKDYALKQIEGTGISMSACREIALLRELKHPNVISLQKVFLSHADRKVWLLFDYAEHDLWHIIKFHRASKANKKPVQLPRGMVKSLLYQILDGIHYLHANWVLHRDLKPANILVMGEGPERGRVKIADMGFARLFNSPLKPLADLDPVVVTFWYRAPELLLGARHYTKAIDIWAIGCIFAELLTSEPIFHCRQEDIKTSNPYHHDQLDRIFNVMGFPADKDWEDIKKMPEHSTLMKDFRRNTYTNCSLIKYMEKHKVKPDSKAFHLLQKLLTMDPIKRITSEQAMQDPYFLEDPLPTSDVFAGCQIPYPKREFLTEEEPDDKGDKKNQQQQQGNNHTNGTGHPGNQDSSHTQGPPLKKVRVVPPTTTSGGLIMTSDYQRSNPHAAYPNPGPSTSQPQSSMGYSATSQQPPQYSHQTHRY
UniProt Q7Z2Z1: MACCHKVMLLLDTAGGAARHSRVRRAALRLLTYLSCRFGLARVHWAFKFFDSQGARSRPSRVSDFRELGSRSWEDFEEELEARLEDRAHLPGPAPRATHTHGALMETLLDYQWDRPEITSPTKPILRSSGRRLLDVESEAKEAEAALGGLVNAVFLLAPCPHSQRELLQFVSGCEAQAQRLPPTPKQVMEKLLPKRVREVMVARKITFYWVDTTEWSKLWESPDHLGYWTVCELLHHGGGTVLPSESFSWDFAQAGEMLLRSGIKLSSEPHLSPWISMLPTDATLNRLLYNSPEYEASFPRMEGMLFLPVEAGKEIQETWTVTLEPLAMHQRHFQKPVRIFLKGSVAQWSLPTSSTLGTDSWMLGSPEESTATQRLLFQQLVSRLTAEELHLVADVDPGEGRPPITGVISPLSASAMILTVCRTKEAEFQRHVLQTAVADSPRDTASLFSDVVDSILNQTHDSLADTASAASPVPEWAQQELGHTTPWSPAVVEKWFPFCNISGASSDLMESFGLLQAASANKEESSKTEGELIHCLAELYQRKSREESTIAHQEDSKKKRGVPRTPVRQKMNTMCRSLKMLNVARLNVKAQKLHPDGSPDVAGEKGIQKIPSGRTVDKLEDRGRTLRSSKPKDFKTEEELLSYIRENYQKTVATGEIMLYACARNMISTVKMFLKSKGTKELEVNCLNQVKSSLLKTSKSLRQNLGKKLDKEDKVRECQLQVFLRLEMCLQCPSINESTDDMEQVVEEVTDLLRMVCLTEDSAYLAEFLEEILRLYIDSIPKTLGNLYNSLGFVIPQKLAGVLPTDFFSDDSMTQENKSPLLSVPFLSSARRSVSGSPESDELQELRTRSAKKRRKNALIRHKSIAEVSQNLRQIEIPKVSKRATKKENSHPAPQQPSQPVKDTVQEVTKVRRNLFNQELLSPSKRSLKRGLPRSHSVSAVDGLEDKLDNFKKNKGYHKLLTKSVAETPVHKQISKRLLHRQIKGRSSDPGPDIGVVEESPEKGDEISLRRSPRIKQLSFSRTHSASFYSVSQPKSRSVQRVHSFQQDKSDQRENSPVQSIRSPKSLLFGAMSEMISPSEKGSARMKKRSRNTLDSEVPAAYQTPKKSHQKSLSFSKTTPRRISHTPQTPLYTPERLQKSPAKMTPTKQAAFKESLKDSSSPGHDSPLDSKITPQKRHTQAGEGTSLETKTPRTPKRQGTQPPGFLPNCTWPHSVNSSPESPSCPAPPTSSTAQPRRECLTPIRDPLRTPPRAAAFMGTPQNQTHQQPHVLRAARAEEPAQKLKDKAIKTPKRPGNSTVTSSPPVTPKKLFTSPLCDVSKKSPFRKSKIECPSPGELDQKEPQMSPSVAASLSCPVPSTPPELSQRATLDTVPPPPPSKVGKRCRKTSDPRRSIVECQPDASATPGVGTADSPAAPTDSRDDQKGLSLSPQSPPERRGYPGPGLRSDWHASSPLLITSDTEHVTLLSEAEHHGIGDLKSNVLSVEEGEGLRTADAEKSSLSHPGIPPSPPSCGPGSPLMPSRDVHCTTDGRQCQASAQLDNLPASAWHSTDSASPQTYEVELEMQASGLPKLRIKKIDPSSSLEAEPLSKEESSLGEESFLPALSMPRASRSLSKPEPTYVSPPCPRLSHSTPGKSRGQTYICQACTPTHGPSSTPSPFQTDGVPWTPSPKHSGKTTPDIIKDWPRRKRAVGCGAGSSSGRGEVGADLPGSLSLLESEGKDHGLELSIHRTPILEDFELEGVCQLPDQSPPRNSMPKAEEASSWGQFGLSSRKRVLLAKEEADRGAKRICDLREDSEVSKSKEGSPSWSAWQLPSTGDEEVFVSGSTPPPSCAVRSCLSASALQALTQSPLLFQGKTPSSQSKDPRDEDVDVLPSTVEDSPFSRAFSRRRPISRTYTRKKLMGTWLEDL

Experiment [1] addresses T1, MTBP-ΔR595–P704-Flag3-TEV2-GFP (human) (UniProt Q96DY7).
T1 sequence: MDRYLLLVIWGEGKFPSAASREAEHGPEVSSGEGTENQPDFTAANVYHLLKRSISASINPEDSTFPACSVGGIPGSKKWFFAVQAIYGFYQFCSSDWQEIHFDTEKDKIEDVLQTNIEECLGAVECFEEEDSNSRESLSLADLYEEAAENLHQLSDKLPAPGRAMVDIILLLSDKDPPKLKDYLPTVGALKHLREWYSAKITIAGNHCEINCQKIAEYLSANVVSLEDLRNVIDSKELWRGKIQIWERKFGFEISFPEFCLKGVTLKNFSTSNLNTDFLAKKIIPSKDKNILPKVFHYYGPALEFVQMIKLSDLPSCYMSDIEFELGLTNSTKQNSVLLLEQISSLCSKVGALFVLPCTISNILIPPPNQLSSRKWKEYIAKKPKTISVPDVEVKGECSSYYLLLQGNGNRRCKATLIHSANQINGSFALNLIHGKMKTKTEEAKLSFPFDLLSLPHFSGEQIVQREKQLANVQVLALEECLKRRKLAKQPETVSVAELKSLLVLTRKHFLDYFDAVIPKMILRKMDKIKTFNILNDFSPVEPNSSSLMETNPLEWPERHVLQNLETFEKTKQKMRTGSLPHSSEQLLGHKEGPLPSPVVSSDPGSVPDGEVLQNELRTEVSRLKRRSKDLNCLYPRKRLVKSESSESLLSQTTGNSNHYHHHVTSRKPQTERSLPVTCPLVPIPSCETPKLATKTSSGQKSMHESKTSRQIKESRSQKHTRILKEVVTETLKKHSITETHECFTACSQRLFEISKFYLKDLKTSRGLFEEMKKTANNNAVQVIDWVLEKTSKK

Experiment [2] deals with T2, MTBP-Δ516–809–3×Flag-TEV2-GFP-NLS (mSld7) (human) (UniProt Q96DY7).
T2 sequence: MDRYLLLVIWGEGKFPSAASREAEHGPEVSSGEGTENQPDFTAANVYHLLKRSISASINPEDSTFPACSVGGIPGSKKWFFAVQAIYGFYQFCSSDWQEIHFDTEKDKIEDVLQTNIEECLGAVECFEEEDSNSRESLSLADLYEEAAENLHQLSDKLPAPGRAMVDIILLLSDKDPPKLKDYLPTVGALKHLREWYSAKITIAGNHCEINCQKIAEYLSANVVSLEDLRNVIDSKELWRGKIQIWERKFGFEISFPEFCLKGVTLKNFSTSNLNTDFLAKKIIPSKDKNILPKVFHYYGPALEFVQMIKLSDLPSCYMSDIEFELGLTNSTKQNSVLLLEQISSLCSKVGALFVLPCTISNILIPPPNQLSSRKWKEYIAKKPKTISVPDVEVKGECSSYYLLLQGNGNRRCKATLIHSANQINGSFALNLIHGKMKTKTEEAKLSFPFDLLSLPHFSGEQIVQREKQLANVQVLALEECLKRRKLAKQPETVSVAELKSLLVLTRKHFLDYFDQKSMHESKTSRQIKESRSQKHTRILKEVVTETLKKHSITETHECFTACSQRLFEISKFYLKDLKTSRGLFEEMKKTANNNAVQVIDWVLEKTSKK

Experiment [3] addresses T3, MTBP-Δ516–704–3×Flag-TEV2-GFP (mSld7) (human) (UniProt Q96DY7).
T3 sequence: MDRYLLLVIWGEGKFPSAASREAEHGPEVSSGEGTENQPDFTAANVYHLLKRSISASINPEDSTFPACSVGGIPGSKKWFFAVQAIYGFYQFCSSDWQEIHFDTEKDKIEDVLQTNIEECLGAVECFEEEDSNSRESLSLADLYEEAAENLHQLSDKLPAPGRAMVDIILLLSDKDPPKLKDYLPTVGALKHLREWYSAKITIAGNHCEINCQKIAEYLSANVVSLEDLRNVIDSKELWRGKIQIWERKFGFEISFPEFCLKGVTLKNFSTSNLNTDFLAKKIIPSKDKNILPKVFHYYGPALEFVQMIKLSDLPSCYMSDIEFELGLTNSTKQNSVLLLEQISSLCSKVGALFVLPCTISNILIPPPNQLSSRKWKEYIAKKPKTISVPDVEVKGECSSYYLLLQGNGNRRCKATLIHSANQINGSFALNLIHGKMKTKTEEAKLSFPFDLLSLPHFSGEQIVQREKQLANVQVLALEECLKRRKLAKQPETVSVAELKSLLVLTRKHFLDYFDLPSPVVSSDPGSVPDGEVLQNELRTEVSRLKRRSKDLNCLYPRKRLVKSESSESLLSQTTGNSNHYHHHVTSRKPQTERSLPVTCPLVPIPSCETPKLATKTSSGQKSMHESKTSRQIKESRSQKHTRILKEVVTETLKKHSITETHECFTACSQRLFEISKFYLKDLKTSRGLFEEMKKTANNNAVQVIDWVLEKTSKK

Results are given in words; binding and its absence hold for the method and conditions named. In cells and extracts the contact can be indirect. Some entries that bind do so weakly or less than the wild type. Tags and fused reporters may be left off the sequences shown.

Take “Cdk8 (cyclin-dependent kinase 8), endogenous (from UniProt P49336 1-464) (enzyme)”: the binding result in experiment [1] was “no binding”. As for “Treslin/TICRR (TopBP1-interacting replication stimulating protein/TopBP1-interacting checkpoint and replication regulator), endogenous (from UniProt Q7Z2Z1 1-1910)”, the binding entry in experiment [2] is given as “binds”; in experiment [3], “binds weakly”.

The record behind these values is publication PMC6377148.
